The results in this text go back to the supplement of paper PMC10338343.

± gives the standard deviation. Whole data set: some 3,700 sequences, median “pre-steady-state target cleavage rate” near 0.02, cut for the highest 2% near 0.23. The list shows a part of the results, in another mix than the full data.

This assay has as its system MILI (PIWIL2) piRISC loaded with Kctd7 piRNA (26 nt). Put plainly: pre-steady-state target cleavage rate (min^-1); MIWI and MILI are mouse PIWI proteins and EfPiwi is from a freshwater sponge; tags in brackets are library labels; higher = faster piRNA-guided slicing of the target. To be noted: guide: Kctd7 piRNA 5'p-UGUUAAUCUCUCAGAGAAGGUGACAG; auxiliary factor: 500 nM mouse GTSF1. The method, then:
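Cleave-'n-Seq: a library of target RNAs (target site embedded in constant flanks, ACAGCATTCCGCGTTAGTGATATCCG... 5' flank; DNA-blocked outside the site) at 0.1 nM was incubated with 1 nM active mouse MILI or MIWI piRISC (synthetic 5'-monophosphorylated piRNA guide) with or without 500 nM mouse GTSF1 at 33 °C for 1 min to 16 h. Uncleaved targets were sequenced and normalised to non-target controls, and the pooled three trials were fitted to a burst-and-steady-state model to give the pre-steady-state cleavage rate (min^-1; k3 is constrained to at most 1e-4). Sequence is the target site only; target names encode pairing extent (gX:gY) and contiguous / 1-mismatch / 2-mismatch / bulge geometry. Fits with R² ≤ 0 are excluded.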
With UAGUCUGUCACCUUCUCUGAGACAUUAACA, the “pre-steady-state target cleavage rate” value amounted to 0.0601 ± 0.0083.

For the sequence UAGUGACACACCUUCUCUCAGAGUUUAACA, the “pre-steady-state target cleavage rate” value was 0.0247 ± 0.0063.

Take UAGUGACAGUGGAACUCUGACAGAUUUACA: the “pre-steady-state target cleavage rate” value was under 0.0001.

In the case of UAGUGACACGCCUUCUCUGAGAGAUUAACA, the “pre-steady-state target cleavage rate” value is 0.109 ± 0.011.

Take UAGUGUGUCACCCUCUCUGAGAGAUUAACA: the “pre-steady-state target cleavage rate” value was found to be 0.174 ± 0.016.

With UAGUGACUCACCUUGUCUCAGAGAUUAACA, the “pre-steady-state target cleavage rate” value was determined as 0.0125 ± 0.0048.

As to UAGUGUCUCACCUUCUCUGAGAGAUAAACA, the “pre-steady-state target cleavage rate” value worked out at 0.11 ± 0.024.

In the case of UAGUGUGUCACCAUCUGUGAGAGAUUAACA, the “pre-steady-state target cleavage rate” value was 0.0988 ± 0.0072.

Regarding UAGUGAGUCACCAUCUCUGAGACAUUAACA, the “pre-steady-state target cleavage rate” value was 0.0534 ± 0.01.

As for UAGUGACACAGGAUCUCUGAGAGAUUAAGA, the “pre-steady-state target cleavage rate” value is 0.0041 ± 0.0014.

Take UAGUGACAGUCCUUCUCUGAGAGACUUAACA: the “pre-steady-state target cleavage rate” value stood at 0.0183 ± 0.0042.

With UAGUGACAGUGGAAGAGACAGACGAUUAACA, the “pre-steady-state target cleavage rate” value is under 0.0001.

For the sequence UAGUGAGUCACCUACUCUGAGACAUUAACA, the “pre-steady-state target cleavage rate” value was determined as 0.0334 ± 0.0096.

As to UAGUGUGUCACCUUCUCUGAGAGAUGAACA, the “pre-steady-state target cleavage rate” value turned out to be 0.0242 ± 0.0097.

UAGUCUGACACCUUCUCUGAGAGAUUAACA: the “pre-steady-state target cleavage rate” value was determined as 0.17 ± 0.0062.

UAGUGACAGACCUACUCUCAGAGAUUAACA: the “pre-steady-state target cleavage rate” value was 0.0109 ± 0.0036.

Consider UAGUCUGUCACCUUCUCUCAGAGAUAAACA, for which the “pre-steady-state target cleavage rate” value was 0.0231 ± 0.0064.

With UAGUGUGUCAGCUUCUCUGAGAGAUAAACA, the “pre-steady-state target cleavage rate” value is 0.0585 ± 0.014.

For UAGUGUGUCACCUACUCUGAGACAUUAACA, the “pre-steady-state target cleavage rate” value came to 0.0742 ± 0.019.

For UAGUCUGUCUGCUUCUCUGAGAGAUUAACA, the “pre-steady-state target cleavage rate” value is 0.185 ± 0.0094.

Consider UAGUGACACACCUUCUCUCAGAGAAUAACA, for which the “pre-steady-state target cleavage rate” value worked out at 0.00502 ± 0.004.

Turning to UAGUGAGUCACCUUCUCUGAGAGUUAUUGA, the “pre-steady-state target cleavage rate” value was 0.157 ± 0.052.

As to UAGUCUGUCACCGUCUCUGAGAGAUUAACA, the “pre-steady-state target cleavage rate” value was 0.185 ± 0.007.

Regarding UAGUGACAGUGCUUGUCUGAGAGAUUAUCA, the “pre-steady-state target cleavage rate” value was 0.0051 ± 0.004.

For UAGUGUGUCACCUUCUCUGACGAGAUUAACA, the “pre-steady-state target cleavage rate” value was 0.028 ± 0.0098.

On to UAGUGUGUCUCCUUCUCUCAGAGAUUAACA, for which the “pre-steady-state target cleavage rate” value turned out to be 0.0458 ± 0.0086.

UAGUGACAGAGGUUCUCUGAGAGAUUAACA: the “pre-steady-state target cleavage rate” value stood at 0.00696 ± 0.0019.

UAGUGACUCUCCUUCUGUGAGAGAUUAACA: the “pre-steady-state target cleavage rate” value stood at 0.0558 ± 0.01.

For UAGUGUGUCACGUUCUCUGAGAGAUUAAGA, the “pre-steady-state target cleavage rate” value was 0.0734 ± 0.014.

With UAGUGAGUCACCAAGUCUGAGAGAUUAACA, the “pre-steady-state target cleavage rate” value was determined as 0.0788 ± 0.0089.

Regarding UAGUGACAGUGCUUCUGUGAGAGAUUAACA, the “pre-steady-state target cleavage rate” value is 0.0383 ± 0.01.

In the case of UAGUGACUCACCUUCACUGAGAGAUAUUGA, the “pre-steady-state target cleavage rate” value was determined as 0.00634 ± 0.004.

UAGUGACAGACCUUCUCUGAGAGAUUAAUA: the “pre-steady-state target cleavage rate” value amounted to 0.0662 ± 0.015.

Consider UAGUGUGUCUGCUUCUCUGAGAGAUUAAGA, for which the “pre-steady-state target cleavage rate” value was 0.0516 ± 0.008.

As for UAGUGACAGAGCUUCUCUGAGACAUUAACA, the “pre-steady-state target cleavage rate” value is 0.0126 ± 0.0038.

Turning to UAGUGACUCACCAUCUCUGAGAGAUUAUCA, the “pre-steady-state target cleavage rate” value was 0.095 ± 0.019.

As for UAGUGAGUCACCUUCUCUGUAGAGAUUAACA, the “pre-steady-state target cleavage rate” value is 0.00499 ± 0.0036.

Take UAGUGACACACCUUGUGUGAGAGAUUAACA: the “pre-steady-state target cleavage rate” value stood at 0.0804 ± 0.011.

With UAGUGACAGUGCUUCUCUGAGUGAUUUACA, the “pre-steady-state target cleavage rate” value is under 0.0001.

As to UAGUGACAGUGCUUCUCUGAGGAGAUUAACA, the “pre-steady-state target cleavage rate” value was 0.00233 ± 0.0023.
